# PubChem BioAssay (Tox21)
# Inconclusive means that the source gave no clear call. Such entries were picked first, then a sample of the others. For part of these data: No potency is given beside an inconclusive call; the fits are too rough. Calls of active or inactive are those of the source. Unless noted, calls come from the whole dose curve.
# Experiments:
# [1] = biological target: Peroxisome proliferator-activated receptor gamma (Homo sapiens) (UniProt P37231); assay: qHTS assay to identify small molecule antagonists of the peroxisome proliferator-activated receptor gamma (PPARg) signaling pathway (AID 743191); conditions: HEK293H PPARg-UAS-bla, beta-lactamase ratio, antagonist, 17 h; ratio activity, negative = inhibition: at 62.6 µM (top of the series) unless noted; note: nearly all actives have a fitted effect of over 30% in size; note: potency is the fitted concentration of half-maximal effect; for ratio activity, negative = inhibition: % is set by controls: 0 for no effect and ±100 for the full control effect
# Sequence of UniProt P37231 (P37231 whole entry, looked up): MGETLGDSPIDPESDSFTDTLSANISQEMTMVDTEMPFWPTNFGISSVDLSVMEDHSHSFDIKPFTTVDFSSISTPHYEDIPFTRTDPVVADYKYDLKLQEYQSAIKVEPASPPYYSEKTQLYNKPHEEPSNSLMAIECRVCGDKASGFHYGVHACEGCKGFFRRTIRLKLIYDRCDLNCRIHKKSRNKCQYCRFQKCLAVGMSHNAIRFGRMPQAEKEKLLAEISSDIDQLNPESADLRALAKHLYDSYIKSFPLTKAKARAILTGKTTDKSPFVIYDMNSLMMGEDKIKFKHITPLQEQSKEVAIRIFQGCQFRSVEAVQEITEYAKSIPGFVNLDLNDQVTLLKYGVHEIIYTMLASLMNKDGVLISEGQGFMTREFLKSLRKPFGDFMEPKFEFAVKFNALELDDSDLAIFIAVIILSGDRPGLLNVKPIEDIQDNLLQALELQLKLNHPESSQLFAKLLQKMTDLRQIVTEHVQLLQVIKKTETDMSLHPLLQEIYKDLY
# In short: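 Beta-lactamase reporter under UAS control in HEK293H PPARg-bla cells; compound treatment 17 h at 37C. Read-out: fluorescence intensity after 1 h room-temperature incubation with LiveBLAzer B/G FRET substrate.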
# [2] = qHTS assay for small molecule agonists of the antioxidant response element (ARE) signaling pathway (AID 743202; active = well fitted activation curve with a large enough effect in the signal ratio in the repeat runs, not every such curve was filed as active; inconclusive = weak or mixed curves, or effect the other way; inactive = no such curve, though single readings can be large or run the other way; the % refers to the signal ratio; note: potency is the fitted concentration of half-maximal effect); conditions: HepG2 ARE-bla reporter, beta-lactamase FRET, 16 h
# In short: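 Quantitative high-throughput format in HepG2 cells bearing an integrated ARE-beta-lactamase reporter. Compound exposure lasted 16 h at 37 C, and fluorescence was read 2 h after adding LiveBLAzer B/G substrate at room temperature.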
# [3] = qHTS assay for small molecule activators of the heat shock response signaling pathway - cell viability counter screen (AID 743209; active = well fitted cell-killing curve with a large enough effect in the repeat runs; inconclusive = weak or mixed curves, or effect the other way; inactive = no such curve, though single readings can be large or run the other way; note: nearly all actives have a fitted effect of over 50% in size; note: potency is the fitted concentration of half-maximal effect); conditions: HSE-bla HeLa viability, CellTiter-Glo luminescence, 5 h; activity change, negative = cytotoxicity: at 62.6 µM (top of the series) unless noted
# In short: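 Quantitative HTS format, Tox21 10K library. HeLa cells carrying an HSE-driven beta-lactamase reporter were treated 5 h at 37 C, then assessed for viability by CellTiter-Glo luminescence.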
# [4] = biological target: Bile acid receptor (Homo sapiens) (UniProt Q96RI1); assay: qHTS assay to identify small molecule agonists of the farnesoid-X-receptor (FXR) signaling pathway (AID 743220; active = well fitted activation curve with a large enough effect in the signal ratio in the repeat runs, not every such curve was filed as active; inconclusive = weak or mixed curves, or effect the other way; the % refers to the signal ratio; note: potency is the fitted concentration of half-maximal effect); conditions: HEK293T FXR-UAS-bla, beta-lactamase FRET ratio, 16 h; activation: at 62.6 µM (top of the series) unless noted
# Sequence of UniProt Q96RI1 (Q96RI1 whole entry, looked up): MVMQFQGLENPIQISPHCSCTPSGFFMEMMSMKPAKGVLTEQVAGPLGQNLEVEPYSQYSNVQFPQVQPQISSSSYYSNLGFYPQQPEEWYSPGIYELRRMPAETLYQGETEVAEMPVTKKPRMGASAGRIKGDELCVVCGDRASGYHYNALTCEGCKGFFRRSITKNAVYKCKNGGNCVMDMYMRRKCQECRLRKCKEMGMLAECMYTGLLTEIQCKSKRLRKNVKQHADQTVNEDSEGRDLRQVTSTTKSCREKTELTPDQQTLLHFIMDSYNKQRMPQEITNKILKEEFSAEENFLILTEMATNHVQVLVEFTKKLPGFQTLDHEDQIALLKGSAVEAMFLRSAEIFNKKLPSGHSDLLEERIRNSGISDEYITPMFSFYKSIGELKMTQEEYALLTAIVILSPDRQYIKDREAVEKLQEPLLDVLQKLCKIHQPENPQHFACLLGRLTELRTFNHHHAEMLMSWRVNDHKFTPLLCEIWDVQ
# In short: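 Beta-lactamase reporter under UAS control in GeneBLAzer FXR HEK 293T cells (5000/well) measured with LiveBLAzer FRET substrate after 2 h at room temperature. Compound exposure lasted 16 h at 37C.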
# [5] = biological target: Vitamin D3 receptor (Homo sapiens) (UniProt P11473); assay: qHTS assay to identify small molecule antagonists of the vitamin D receptor (VDR) signaling pathway (AID 743223; active = well fitted inhibition curve with a large enough effect in the signal ratio in the repeat runs, not every such curve was filed as active; inconclusive = weak or mixed curves, or effect the other way; inactive = no such curve, though single readings can be large or run the other way; the % refers to the signal ratio; note: % is set by controls: 0 for no effect and ±100 for the full control effect); conditions: VDR-UAS-bla HEK293T, beta-lactamase FRET ratio, 16 h; activity change, negative = inhibition: at 61 µM (top of the series) unless noted
# Sequence of UniProt P11473 (P11473 whole entry, looked up): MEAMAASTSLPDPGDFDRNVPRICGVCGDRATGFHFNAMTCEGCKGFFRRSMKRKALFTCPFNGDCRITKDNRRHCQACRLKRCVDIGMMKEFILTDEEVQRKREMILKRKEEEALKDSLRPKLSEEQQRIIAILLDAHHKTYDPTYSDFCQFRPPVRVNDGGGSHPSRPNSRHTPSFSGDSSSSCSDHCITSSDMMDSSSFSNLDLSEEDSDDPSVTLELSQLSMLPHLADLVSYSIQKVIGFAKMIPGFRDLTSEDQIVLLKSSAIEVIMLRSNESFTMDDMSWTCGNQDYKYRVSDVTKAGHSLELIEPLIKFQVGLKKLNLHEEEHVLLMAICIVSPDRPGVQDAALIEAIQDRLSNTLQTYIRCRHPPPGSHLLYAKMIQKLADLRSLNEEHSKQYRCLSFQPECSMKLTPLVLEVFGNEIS
# In short: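 Antagonist mode: compound added to VDR-bla cells alongside agonist 1alpha,25-dihydroxyvitamin D3 (3 nM final), incubation 16 h at 37C. Read-out is LiveBLAzer FRET fluorescence, 2 h at room temperature.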
# [6] = qHTS assay for small molecule activators of the heat shock response signaling pathway (AID 743210; active = well fitted activation curve with a large enough effect in the signal ratio in the repeat runs, with a control signal flat, not every such curve was filed as active; inconclusive = weak or mixed curves; the % refers to the signal ratio; note: potency is the fitted concentration of half-maximal effect); conditions: HeLa HSE-bla reporter, beta-lactamase ratio, 5 h; activation: at 62.6 µM (top of the series) unless noted
# In short: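 HeLa HSE-bla cells, overnight plating; cpd in DMSO 5 h, 37 C; LiveBLAzer B/G FRET substrate 2.5 h RT; fluorescence intensity read.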
# [7] = qHTS assay to identify small molecule agonists of the farnesoid-X-receptor (FXR) signaling pathway - cell viability counter screen (AID 743218; active = well fitted cell-killing curve with a large enough effect in the repeat runs; inconclusive = weak or mixed curves, or effect the other way; inactive = no such curve, though single readings can be large or run the other way; note: nearly all actives have a fitted effect of over 45% in size; note: potency is the fitted concentration of half-maximal effect); conditions: FXR-bla HEK293T viability, CellTiter-Glo luminescence, 16 h; viability change, negative = cytotoxic: at 62.6 µM (top of the series) unless noted
# In short: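 In GeneBLAzer FXR-UAS-bla HEK 293T cells, compounds act for 16 h at 37 C. Cell viability is then scored in the reporter wells by CellTiter-Glo, 30 min at RT, luminescence.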
# [8] = qHTS assay to identify small molecule antagonists of the farnesoid-X-receptor (FXR) signaling pathway - cell viability counter screen (AID 743221; active = well fitted cell-killing curve with a large enough effect in the repeat runs, not every such curve was filed as active; inconclusive = weak or mixed curves, or effect the other way; inactive = no such curve, though single readings can be large or run the other way; note: potency is the fitted concentration of half-maximal effect; nearly all actives have a fitted effect of over 50% in size); conditions: FXR-bla HEK293T viability, CellTiter-Glo luminescence, 16 h; activity change, negative = cytotoxicity: at 62.6 µM (top of the series) unless noted
# In short: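 Cytotoxicity counter screen run in the FXR-bla reporter wells: HEK 293T cells exposed to compound with 50 uM (final) chenodeoxycholic acid for 16 h, 37 C, then viability measured by CellTiter-Glo luminescence after 30 min, room temperature.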
# [9] = biological target: Vitamin D3 receptor (Homo sapiens) (UniProt P11473); assay: qHTS assay to identify small molecule agonists of the vitamin D receptor (VDR) signaling pathway (AID 743222); conditions: HEK293T VDR-UAS-bla, beta-lactamase FRET ratio, 16 h; activation: at 63.5 µM (top of the series) unless noted; note: % is set by controls: 0 for no effect and ±100 for the full control effect
# In short: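 Agonist activity measured in VDR-bla reporter cells. Exposure 16 h, 37C, 5% CO2; detection by B/G FRET substrate, 2 h RT.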
# [10] = biological target: Peroxisome proliferator-activated receptor delta (Homo sapiens) (UniProt Q03181); assay: qHTS assay to identify small molecule agonists of the peroxisome proliferator-activated receptor delta (PPARd) signaling pathway (AID 743212); conditions: HEK293H PPARd-UAS-bla, beta-lactamase FRET ratio, 17 h; activation: at 62.6 µM (top of the series) unless noted; note: % is set by controls: 0 for no effect and ±100 for the full control effect
# Sequence of UniProt Q03181 (Q03181 whole entry, looked up): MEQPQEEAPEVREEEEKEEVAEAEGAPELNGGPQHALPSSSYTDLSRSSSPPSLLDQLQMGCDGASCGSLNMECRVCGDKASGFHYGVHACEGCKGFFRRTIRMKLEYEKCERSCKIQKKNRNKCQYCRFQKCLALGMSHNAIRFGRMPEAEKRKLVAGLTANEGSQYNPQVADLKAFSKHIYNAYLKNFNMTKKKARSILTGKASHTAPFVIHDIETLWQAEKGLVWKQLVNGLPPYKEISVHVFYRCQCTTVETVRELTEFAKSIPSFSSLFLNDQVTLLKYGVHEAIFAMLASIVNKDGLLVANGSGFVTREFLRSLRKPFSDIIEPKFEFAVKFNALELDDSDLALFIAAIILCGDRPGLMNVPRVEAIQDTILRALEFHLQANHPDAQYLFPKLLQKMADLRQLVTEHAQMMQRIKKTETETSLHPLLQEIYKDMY
# In short: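 HEK293H PPARd-bla cells; 5 h preincubation 37 C/5% CO2; compound (DMSO) 37 C; LiveBLAzer B/G FRET substrate 2 h RT; fluorescence intensity.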
# [11] = biological target: Peroxisome proliferator-activated receptor delta (Homo sapiens) (UniProt Q03181); assay: qHTS assay to identify small molecule antagonists of the peroxisome proliferator-activated receptor delta (PPARd) signaling pathway (AID 743215; active = well fitted inhibition curve with a large enough effect in the signal ratio in the repeat runs, not every such curve was filed as active; inconclusive = weak or mixed curves, or effect the other way; inactive = no such curve, though single readings can be large or run the other way; the % refers to the signal ratio;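 note: cells stimulated with agonist L165041 at 300 nM final during compound exposure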; note: potency is the fitted concentration of half-maximal effect); conditions: HEK293H PPARd-UAS-bla, beta-lactamase FRET ratio, antagonist, 17 h; ratio activity, negative = inhibition: at 62 µM (top of the series) unless noted
# In short: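 Antagonist-mode beta-lactamase reporter screen: HEK293H cells with UAS-bla under PPARd control, stimulated by 300 nM L165041 (final) alongside test compound for 17 h at 37 C, then FRET fluorescence after 2 h substrate incubation.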
# [12] = qHTS assay to identify small molecule agonists of the vitamin D receptor (VDR) signaling pathway - cell viability counter screen (AID 743224; active = well fitted cell-killing curve with a large enough effect in the repeat runs; inconclusive = weak or mixed curves, or effect the other way; inactive = no such curve, though single readings can be large or run the other way; note: potency is the fitted concentration of half-maximal effect; nearly all actives have a fitted effect of over 50% in size); conditions: VDR-bla HEK293T viability, CellTiter-Glo luminescence, 16 h; activity change, negative = cytotoxicity: at 62.6 µM (top of the series)
# In short: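 VDR-bla cell line, quantitative HTS format; 16 h compound incubation (37C, 5% CO2); ATP-based CellTiter-Glo luminescence measured in the reporter assay wells.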
# [13] = activation: at 73.3 µM (top of the series) unless noted
# Tags give direction and shape of the fitted curve or compound fluorescence and quenching.
smiles,measurement,setting,value
CCN(CCC#N)c1ccccc1,Potency,[1],inactive
same,Potency,[2]; [13],"inconclusive [falling, partial curve, poor fit]"
same,Potency,[3],inactive
same,Potency,[4],"inconclusive [fluorescent, partial curve, poor fit]"
same,"activity change, negative = inhibition",[5],inconclusive: 19.9%
Cc1cccc(N(C)C(=S)Oc2ccc3c(c2)CCC3)c1,"ratio activity, negative = inhibition",[1],inconclusive: -29.3%
same,Potency,[2]; [13],inconclusive
CCOC(=O)c1ccccc1C,Potency,[1],inactive
same,activation,[2]; [13],inconclusive: 11.4%
same,Potency,[6],inactive
same,Potency,[7],"inconclusive [cytotoxic, partial curve]"
same,Potency,[8],"inconclusive [falling, partial curve, poor fit]"
CCn1cc(C(=O)O)c(=O)c2cc(F)c(N3CCNCC3)cc21,Potency,[1],inactive
same,Potency,[2]; [13],inactive
same,Potency,[6],inactive
CCOC(=O)Cn1cccc1-c1nc(-c2ccc(OC)cc2)c(-c2ccc(OC)cc2)s1,"ratio activity, negative = inhibition",[1],inconclusive: 3.71%
same,Potency,[2]; [13],active: 7.5 µM
same,Potency,[6],"inconclusive [falling, partial curve]"
same,Potency,[7],"inconclusive [cytotoxic, full curve]"
same,activation,[9],inconclusive: 1.37%
O=C(Cl)c1cccc(C(=O)Cl)c1,Potency,[1],inconclusive [fluorescent]
same,activation,[2]; [13],inconclusive: 21.3%
same,activation,[2]; at 73.3 µM (top of the series),inactive: 3.18%
CCC1NC(=O)c2cc(S(N)(=O)=O)c(Cl)cc2N1 (configuration not stated),Potency,[1],inactive
same,Potency,[2]; [13],inactive
same,Potency,[3],inconclusive [cytotoxic]
same,Potency,[10],inactive
same,"ratio activity, negative = inhibition",[11],inconclusive: -30.6%
same,Potency,[7],inactive
same,Potency,[8],"inconclusive [falling, partial curve, poor fit]"
same,Potency,[5],inactive
CCCCCCCCN,Potency,[1],inactive
same,Potency,[2]; [13],inactive
O=C1c2ccccc2C(=O)N1CCc1noc(-c2ccc(CN3CCCCCC3)s2)n1,"ratio activity, negative = inhibition",[1],inconclusive: -24.5%
same,Potency,[2]; [13],active: 6.29 µM
same,Potency,[11],"inconclusive [rising, full curve, poor fit]"
same,Potency,[7],inactive
same,Potency,[4],inconclusive [activator]
same,Potency,[12],"inconclusive [cytotoxic, single point]"
CCOC(=O)C(F)(F)F,"ratio activity, negative = inhibition",[1],inconclusive: 17.5%
same,activation,[2]; [13],inconclusive: -1.59%
same,Potency,[9],inactive
